Source: PubChem BioAssay AID1460 (National Center for Advancing Translational Sciences (NCATS), 2008)
Out of some 270,000 compounds screened, about 5,800 (2.1%) were called active. Inconclusive results, whose numbers are uncertain, are shown with a selection of clear calls. Calls follow the shape of the dose curve; as a rule, active = well fitted inhibition curve with a large enough effect; inconclusive = small, poorly fitted or top-dose-only effect; inactive = flat fitted curve, though single readings scatter. Potencies beside an inconclusive call are fits to weak or partial responses and may not hold up. Where a structure was tested more than once in an assay, its records may differ in their call.

What follows are molecules tested against Microtubule-associated protein tau (Homo sapiens) (UniProt P10636) (assay: qHTS for Inhibitors of Tau Fibril Formation, Thioflavin T Binding). Settings: recombinant tau K18 P301L, heparin-induced fibrillization, ThT fluorescence; series mostly up to 57.4 µM.
How it was run: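 ThT emission at 510 nm, taken 1 hr after adding 30 uM dye, quantifies aggregates formed when 20 uM heparin acts on human tau K18 P301L for 6 hr at 37 C.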
Also: nearly all actives have a fitted effect of over 55% in size.
Potency is read from the fitted curve at half-maximal effect; tags tell the direction and shape of the fitted curve.

UniProt P10636, sequence (P10636 whole entry, looked up): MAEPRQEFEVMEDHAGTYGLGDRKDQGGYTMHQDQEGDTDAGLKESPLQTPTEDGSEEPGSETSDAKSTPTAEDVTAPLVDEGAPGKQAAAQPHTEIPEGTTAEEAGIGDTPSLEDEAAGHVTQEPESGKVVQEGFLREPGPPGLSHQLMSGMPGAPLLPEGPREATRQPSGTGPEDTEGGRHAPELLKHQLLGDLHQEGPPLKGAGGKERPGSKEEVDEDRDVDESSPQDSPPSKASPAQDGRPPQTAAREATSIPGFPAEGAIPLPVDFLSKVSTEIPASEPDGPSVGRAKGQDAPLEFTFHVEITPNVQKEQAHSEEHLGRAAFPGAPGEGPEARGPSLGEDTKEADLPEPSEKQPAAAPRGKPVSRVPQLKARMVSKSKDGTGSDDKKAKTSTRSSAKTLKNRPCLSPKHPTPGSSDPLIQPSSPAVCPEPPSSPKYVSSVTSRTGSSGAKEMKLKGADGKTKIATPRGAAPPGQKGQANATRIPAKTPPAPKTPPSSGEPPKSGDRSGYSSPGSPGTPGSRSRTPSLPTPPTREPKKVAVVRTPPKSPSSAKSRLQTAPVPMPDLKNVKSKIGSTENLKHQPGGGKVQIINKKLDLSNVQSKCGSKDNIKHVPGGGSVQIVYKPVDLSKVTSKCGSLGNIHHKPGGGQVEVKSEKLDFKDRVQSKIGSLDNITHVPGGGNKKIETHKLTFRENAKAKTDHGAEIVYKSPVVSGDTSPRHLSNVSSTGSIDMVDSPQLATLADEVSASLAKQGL

| Structure (SMILES) | Potency |
| --- | --- |
| CCOC(=O)/C(=N/Nc1ccc(C)cc1)S(=O)(=O)c1ccc(Cl)cc1 | inconclusive: 39.8 µM [inhibitor, partial curve] |
| C/C(=N\NC(=O)c1cc(-c2cccnc2)nc2ccccc12)c1ccc(O)cc1O | active: 7.94 µM |
| COc1ccc(C(=O)COC(=O)c2ccc3ccccc3n2)cc1 | inconclusive: 7.08 µM [inhibitor, partial curve] |
| C=CCN1C=C2C(=O)C(C)(OC(=O)CCC(=O)OC)C(=O)C(Br)=C2C=C1c1ccc(OC)cc1 (stereo not drawn) | active: 14.1 µM |
| CCc1ccc(Nc2nc(-c3cc4cccc(OC)c4oc3=O)c(CC)s2)cc1 | inconclusive: 12.6 µM [inhibitor, partial curve] |
| COc1ccc(-c2nc(CN3CCCC(C(=O)NC4CCCC4)C3)c(C)o2)cc1 (stereo not drawn) | inactive |
| Cc1cccc(OC(=O)c2snnc2C)c1C | inconclusive: 28.2 µM [inhibitor, single point] |
| CCCN(C(=O)c1cc2c(s1)-c1ccccc1OC2)c1ccc(C(C)C)cc1 | inconclusive: 11.2 µM [inhibitor, partial curve] |
| Cc1nc([N+](=O)[O-])c(Br)n1CC(=O)c1ccc(Br)cc1 | inconclusive: 15.8 µM [inhibitor, partial curve] |
| C[n+]1ccccc1C1CCCC/C1=N\Nc1ccc([N+](=O)[O-])cc1[N+](=O)[O-] (stereo not drawn) | inconclusive: 25.1 µM [inhibitor, single point] |
| CC(CCc1ccccc1)NC(=O)CN1CCN(c2ccccc2)CC1 (stereo not drawn) | inconclusive: 20 µM [inhibitor, single point] |
| CCCCCc1cc(=O)oc2c(C(CCN3CCCC3)c3ccc(N(C)C)cc3)c(OC)cc(OC)c12 (stereo not drawn) | inconclusive: 44.7 µM [inhibitor, single point] |
| Cc1ccc(F)cc1NC(=O)Nc1cc(C(C)(C)C)nn1C | inactive |
| NC(=O)c1nsc(C(=O)N(c2cccc(F)c2)C(C(=O)NCC2CCCO2)c2cccs2)c1N (stereo not drawn) | inconclusive: 39.8 µM [inhibitor, single point] |
| COc1ccccc1C(=O)O/N=C(/c1ccncc1)c1ccc([N+](=O)[O-])cc1 | inactive |
| Cc1cccc(Nc2c([N+](=O)[O-])c(=O)n(C)c3ccccc23)c1 | inconclusive: 22.4 µM [inhibitor, partial curve] |
| C=CCc1c(C)nc(SC)nc1Nc1ccc(C(C)=O)cc1 | inconclusive: 15.8 µM [inhibitor, single point] |
| CCOC(=O)Cc1ccc(NC(=O)Nc2nnc(N3CCCCC3C)s2)cc1 (stereo not drawn) | inconclusive: 15.8 µM [inhibitor, single point] |
